From PubChem BioAssay AID686978 (National Center for Advancing Translational Sciences (NCATS), 2013)
The whole screen tested about 420,000 compounds, of which about 64,000 (15%) were called active. Inconclusive results, whose numbers are uncertain, are shown with a selection of clear calls. Calls follow the shape of the dose curve; as a rule, active = well fitted inhibition curve with a large enough effect; inconclusive = small, poorly fitted or top-dose-only effect; inactive = flat fitted curve, though single readings scatter. Potencies of inconclusive entries are left out as doubtful fits.

assay: qHTS for Inhibitors of human tyrosyl-DNA phosphodiesterase 1 (TDP1): qHTS in cells in absence of CPT; conditions: DT40 Tdp1-/- hTDP1 cells, no CPT, ATP luminescence, 48 h; activity change, negative = growth inhibition: at 46.2 µM (top of the series) unless noted; also: nearly all actives have a fitted effect of over 55% in size
Summary of the method: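 Seeded 400 DT40-hTDP1 cells/well (vehicle DMSO, no 20 nM CPT); pinned compounds; ≥48 hr at 37 °C; CellTiter-Glo luminescence as viability measure.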
% is scaled to controls: 0 for no effect and ±100 for the full control effect; potency is read from the fitted curve at half-maximal effect; tags tell the direction and shape of the fitted curve.

| SMILES | activity change, negative = growth inhibition | Potency |
| --- | --- | --- |
| Cc1ccc(NCC(=O)N/N=C\c2cccc(O)c2)cc1 | inactive: -2.01% | – |
| CC(C)CC(N)c1csc(Nc2ccc(C(=O)NCCO)cc2)n1 (stereo unspecified) | – | inconclusive [inhibitor, single point] |
| CCOc1cc(C(=O)Nc2cccc(C(C)=O)c2)ccc1OCC(=O)N1CCCCC1 | – | inconclusive [inhibitor, single point] |
| CCN(CC(=O)Nc1c(F)cccc1F)C(=O)c1cccc(S(=O)(=O)N2CCCc3ccccc32)c1 | – | active: 16.4 µM |
| Cc1ccc(SCc2[nH]nc3c2C(C(C)C)C(C#N)=C(N)O3)cc1 (stereo unspecified) | – | inconclusive [inhibitor, single point] |
| Cc1ccc(N(CC(=O)Nc2ccccc2-c2ccccc2)S(=O)(=O)c2ccccc2)cc1 | – | active: 20.6 µM |
| Cc1ccc(C(=O)Oc2ccc(-c3nnco3)cc2)o1 | inactive: -18.4% | – |
| O=C(Nc1ccc(S(=O)(=O)Nc2nccs2)cc1)c1cc(-c2ccccc2Cl)nc2ccccc12 | – | inconclusive [inhibitor, full curve] |
| COC(=O)c1sccc1NC(=O)c1c(F)c(F)c(F)c(F)c1F | – | inconclusive [inhibitor, single point] |
| O=C(Cn1nc(-c2ccccc2)c2ccccc2c1=O)Nc1ccc(F)cc1 | – | inconclusive [inhibitor, single point] |
| COc1ccc(NC(=O)c2ccc(CN3CCN(c4ccccc4)CC3)cc2)cc1OC | – | inconclusive [inhibitor, single point] |
| COc1ccc(C(=O)N2CCCCC2c2cc(C(=O)NCc3ccccc3)no2)cc1 (stereo unspecified) | inactive: -20.6% | – |
| S=C(Nc1ccccc1)Nc1cc(Cl)ccc1Oc1ccccc1 | inactive: -76.1% | – |
| Cc1cc(OCCOCCN2CCCC2)ccc1C(C)C | – | inconclusive [inhibitor, single point] |
| Cc1cc(C)c2c(N)c(C(=O)c3ccc(Cl)c(Cl)c3)sc2n1 | – | inconclusive [inhibitor, single point] |
| COc1cc(NC(=O)CN2C(=O)CSc3ccc(S(=O)(=O)N4CCCC4)cc32)cc(OC)c1 | – | inconclusive [inhibitor, single point] |
| O=C1[C@@H]2Cc3c([nH]c4ccccc34)C(c3ccc([N+](=O)[O-])cc3)N2C(=O)CN1C1CC1 (stereo partly specified) | – | active: 4.61 µM |
| O=C1CCCN1c1ccc(S(=O)(=O)NCc2ccc(F)cc2)cc1 | – | inconclusive [inhibitor, full curve, poor fit] |
| CN(C)N1C(N)=C(C#N)C(c2ccccc2F)C2=C1CC(C)(C)CC2=O (stereo unspecified) | inactive: -2.39% | – |
| CC(=O)Nc1nnc(SCC(=O)NC2CCCC2)s1 | inactive: -13.9% | – |
| Cc1c(/C(O)=C2/C(=O)C(=O)N(Cc3cccnc3)C2c2ccccn2)cnn1-c1ccccc1 (stereo unspecified) | inactive: -13.1% | – |
| CN(C)c1nc(-c2ccccc2)ncc1S(=O)(=O)c1ccccc1 | – | inconclusive [inhibitor, single point] |
| Cc1ccc(C)c(N(CC(=O)NCc2ccco2)C(=O)CNS(=O)(=O)c2ccc(F)cc2)c1 | inactive: -29.6% | – |
| CC(=O)c1cccc(NC(=O)CSc2nc3ccccc3c(=O)n2CCCN2CCOCC2)c1 | – | inconclusive [inhibitor, single point] |

| SMILES | activity change, negative = growth inhibition | Potency |
| --- | --- | --- |
| COC(=O)c1c(NC(=O)c2cccc([N+](=O)[O-])c2)sc(C(N)=O)c1C | – | inconclusive [inhibitor, partial curve] |
| OCc1nc2ccccc2n1/N=C/c1cccs1 | inactive: -23.6% | – |
| COc1ccc2nc(SCc3ccccc3C)nc(C)c2c1 | – | inconclusive [inhibitor, partial curve, poor fit] |
| CCCc1c(-c2ccc(O)cc2)nn(-c2ccc(O)cc2)c1-c1ccc(O)cc1 | inconclusive: -30.2% [inhibitor] | – |
| Cc1ccc(C)c(OCC(=O)Nc2ccc(S(=O)(=O)Nc3onc(C)c3C)cc2)c1C | inactive: -18.2% | – |
| O=C(Nc1ccccc1N1CCN(c2ccc(F)cc2)CC1)C12CC3CC(CC(C3)C1)C2 | – | inconclusive [inhibitor, single point] |
| C(=N\N1CCN(C2c3ccccc3-c3ccccc32)CC1)/c1cccs1 | – | inconclusive [inhibitor, single point] |
| Cn1cc(Cl)cc(C(=O)Nc2ccccc2)c1=O | inactive: -1.84% | – |
| CC(Oc1ccc(F)cc1)C(=O)Nc1ccc(N2CCOCC2)cc1N1CCOCC1 (stereo unspecified) | – | inconclusive [inhibitor, single point] |
| CCOC(=O)/C(C#N)=C1\Nc2ccccc2N=C1N(CC(C)C)CC(C)C | – | active: 18.4 µM |
| CCN(CCCNC(=O)CSc1cc(=O)n(CC)c2ccccc12)c1cccc(C)c1 | – | active: 20.6 µM |
| Cc1ccc2nc(C)c(C(=O)NN=C3CCN(C)CC3)n2c1 | inactive: 7.68% | – |
| COC(=O)c1c(C)[nH]c(C(=O)C(C)OC(=O)c2c(C)noc2C)c1C (stereo unspecified) | – | inconclusive [inhibitor, single point] |
| O=C(Nc1ccc(Nc2ccccc2)cc1)Nc1ccccc1Cl | – | active: 7.31 µM |
| Cc1ccc(NC(=O)c2c(C)oc3nc(C)nc(N4CCCC4)c23)c(C)c1 | inactive: -9.72% | – |
| CC(Sc1cn(CCNC(=O)c2ccccc2F)c2ccccc12)c1ccccc1 (stereo unspecified) | – | active: 20.6 µM |
| O=C(NCCN1CCN(c2ccccc2)CC1)C1CCN(S(=O)(=O)c2cccc3nsnc23)CC1 | inactive: -25.3% | – |
| Nc1c(C(=O)NC2CC2)c2nc3ccccc3nc2n1-c1ccc2c(c1)OCO2 | – | inconclusive [inhibitor, partial curve] |
| CCOC(=O)C(C(=O)OCC)C(Nc1ccc(Br)cc1)c1ccccc1 (stereo unspecified) | – | inconclusive [inhibitor, single point] |
| C#CCOCCOCCOCCNc1nc(N2CCN(C(=O)[C@H]([C@@H](C)CC)n3cc(CCC(=O)O)nn3)CC2)nc(N2CCN(C(=O)[C@H](CCCCN)n3cc(CC(C)O)nn3)CC2)n1 (stereo partly specified) | inactive: -1.32% | – |
| CC1Oc2ccccc2C=C1/C=N/NC(=O)c1ccncc1 (stereo unspecified) | – | inconclusive [inhibitor, partial curve] |
| COc1cccc(-n2c(C)c3c(OC)cccc(=O)c3c2C)c1 | – | inconclusive [inhibitor, partial curve] |
| Cc1cccc(N2CC(C(=O)Nc3cccc(S(=O)(=O)N4CCCCC4)c3)CC2=O)c1C (stereo unspecified) | – | inconclusive [inhibitor, partial curve] |
| Cc1cc(O)c(/C=N/Nc2cccc(Cl)c2)c(=O)o1 | – | inconclusive [inhibitor, single point] |

| SMILES | activity change, negative = growth inhibition | Potency |
| --- | --- | --- |
| CCOC(=O)C(C)Oc1ccc(NC(=O)C(Cl)Cl)cc1 (stereo unspecified) | inactive: -2.34% | – |
| Cn1c(=O)c2[nH]c(Cc3cccc(O)c3)nc2n(C)c1=O | inconclusive: -37.4% [inhibitor] | – |
| CCN(C(=O)c1ccc2c(OC)n(CC)nc2c1)c1ccc(OC)cc1 | inactive: -3.11% | – |
| COc1cccc(-c2nccc(NC3CCNCC3)n2)c1 | – | inconclusive [inhibitor, single point] |
| CS(=O)(=O)c1ccc2nc(NC(=O)Nc3ccccc3F)sc2c1 | – | inconclusive [inhibitor, single point] |
| CC(Oc1cccc(NC(=O)c2cccs2)c1)C(=O)c1ccccc1 (stereo unspecified) | – | inconclusive [inhibitor, single point] |
| COc1ccc(NC(=O)c2c(NCc3sccc3C)sc3c2CCCCC3)c(OC)c1 | – | active: 3.26 µM |
| O=C(c1cc(-c2cccs2)nc2ccccc12)N1CCN(S(=O)(=O)c2ccccc2)CC1 | – | inconclusive [inhibitor, single point] |
| COC(=O)c1ccc(NC(=O)CSc2ncc3c(n2)-c2cc(Cl)ccc2N(Cc2ccccc2)S3(=O)=O)cc1 | – | active: 20.6 µM |
| CCOc1ccc(CCNC(=O)c2ccc(CS(=O)Cc3cccc(Cl)c3)o2)cc1 (stereo unspecified) | – | active: 14.6 µM |
| COc1ccc(C)cc1NC(=O)Cn1c(=O)ccc2cc(S(=O)(=O)N3CCC(C)CC3)ccc21 | – | inconclusive [inhibitor, single point] |
| O=C(NCCc1ccc2c(c1)OCCO2)c1ccc(F)cc1 | – | inconclusive [inhibitor, full curve, poor fit] |
| CC(C)c1ccc(NC2CCCN(C(=O)c3ccc(N4CCOCC4)cc3)C2)cc1 (stereo unspecified) | – | active: 16.4 µM |
| CN(C(=O)c1cc2n(n1)C(C(F)(F)F)CC(c1ccco1)N2)c1ccccc1 (stereo unspecified) | inconclusive: -37.1% [inhibitor] | – |
| O=S(=O)(c1ccc(F)cc1)N(Cc1nc(-c2ccc(Cl)cc2)no1)C1CCCCC1 | – | active: 25.9 µM |
| NS(=O)(=O)c1ccc(CNC(=O)C(c2ccccc2)c2ccccc2)cc1 | inactive: -21.2% | – |
| COc1ccc(-c2cc(C(=O)NCCN3CCOCC3)c3ccccc3n2)cc1OC | – | inconclusive [inhibitor, single point] |
| CCOC(=O)c1c(NC(=O)C2COc3ccccc3O2)sc2c1CC(C)(C)NC2(C)C (stereo unspecified) | – | active: 11.6 µM |
| O=C(CCS(=O)(=O)c1cc(Br)cc2c1N(C(=O)C1CC1)CC2)NCc1ccccc1Cl | inactive: -16% | – |
| O=C(COc1cc([N+](=O)[O-])cc2cccnc12)NCCC1=CCCCC1 | – | inconclusive [inhibitor, single point] |
| COc1cc(OC)cc(C(=O)NCC2CCCN(C(=O)c3oc(C)cc3C)C2)c1 (stereo unspecified) | – | inconclusive [inhibitor, single point] |
| CCN(C(=O)c1ccc2c(c1)OCO2)C12CC3CC(CC(C3)C1)C2 | – | active: 23.1 µM |
| Cc1c(NC(=O)c2cccc3c(Cl)cccc23)cccc1-c1nc2ccccc2o1 | – | active: 20.6 µM |
